# The supplement of paper PMC3334620
# Over roughly 33,000 sequences, “E-score (-0.5 to 0.5)” has its median near -0.012; the highest 2% begin near 0.27. The list shows a part of the results.
# Biological target: T1, Vhr1 (UniProt P40522)
# T1 sequence: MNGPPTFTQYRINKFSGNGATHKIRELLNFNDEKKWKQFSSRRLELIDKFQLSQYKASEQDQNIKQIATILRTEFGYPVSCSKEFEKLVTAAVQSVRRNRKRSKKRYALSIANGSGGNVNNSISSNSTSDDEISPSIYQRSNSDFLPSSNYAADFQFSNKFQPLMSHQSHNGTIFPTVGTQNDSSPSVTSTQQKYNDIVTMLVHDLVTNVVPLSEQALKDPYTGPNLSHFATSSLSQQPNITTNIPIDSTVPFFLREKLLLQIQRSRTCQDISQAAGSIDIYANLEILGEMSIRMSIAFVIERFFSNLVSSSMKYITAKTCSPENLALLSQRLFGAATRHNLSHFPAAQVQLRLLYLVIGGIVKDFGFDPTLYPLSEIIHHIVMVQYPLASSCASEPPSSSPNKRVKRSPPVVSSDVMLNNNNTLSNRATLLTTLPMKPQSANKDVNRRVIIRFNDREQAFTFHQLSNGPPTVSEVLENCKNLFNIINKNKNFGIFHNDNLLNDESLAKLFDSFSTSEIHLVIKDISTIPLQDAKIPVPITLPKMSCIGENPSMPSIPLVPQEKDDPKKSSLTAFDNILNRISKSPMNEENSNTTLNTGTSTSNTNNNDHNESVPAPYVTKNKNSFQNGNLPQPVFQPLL
# Assay: PBM E-score (8-mer binding enrichment) (E-score (-0.5 to 0.5)); higher = stronger / more preferred TF binding; most listed sequences are background and not binding sites
# Settings: protein concentration: 200 nM; construct: GST-full length
# How it was run: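 PURExpress in vitro transcription/translation supplied GST-tagged yeast transcription factors, either full-length or DNA-binding domain. Applied at about 100-200 nM to universal all-10-mer Agilent arrays double-stranded by primer extension, the bound protein was detected with fluorescent anti-GST. E-scores, modified Wilcoxon-Mann-Whitney statistics, were given by the Universal PBM Analysis Suite to ungapped eight-base words pooled with their reverse complements after masliner normalisation.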
row,Sequence,PBM E-score
1,AACGGCAT,0.0401
2,CAGATGAC,0.0552
3,CTACTAGC,0.189
4,ACGACCCC,-0.103
5,GGCCCCCA,-0.317
6,CAGTCGAA,-0.104
7,AAGTTATT,0.0815
8,ACGCTAAA,-0.0993
9,GGCCATCA,-0.0669
10,ACCTTCAT,-0.0375
11,GATCTGAA,-0.0479
12,GGCGAGAC,0.115
13,ATTTTGTC,-0.233
14,CAGTACGC,0.00816
15,CAATGTGG,0.0363
16,ACTAGATA,0.12
17,ATAGTTTC,0.0533
18,ATAAAGTG,0.0384
19,CCTAGGAA,-0.00852
20,GATGTCTA,0.147
21,AATGGAAT,-0.0109
22,CCTTTACG,-0.0886
23,CTGAAGCC,-0.0475
24,ACTGAGGC,-0.046
25,AATCTATC,0.0296

row,Sequence,PBM E-score
1,AACTGGAT,0.0295
2,GCACGGGA,-0.146
3,GACCTTTA,-0.157
4,CTGCCCGC,0.186
5,CGGTTATA,-0.0181
6,GAAGCGTA,-0.0555
7,CCTTTCCA,-0.105
8,GCCTCTAA,-0.175
9,CGATAACC,0.0438
10,GGTCAGAC,-0.0121
11,ATCCATCA,0.289
12,CAGTGCCC,-0.0928
13,AATACTCC,0.035
14,CGTCGGGC,-0.0484
15,GAACTAAC,-0.0908
16,CTTATCCC,-0.147
17,GCAATGAC,0.103
18,CGGTAGTC,0.191
19,TCCCACAA,-0.0701
20,CCATTAAG,-0.093
21,AAAACATT,-0.119
22,AACATCTT,-0.0649
23,AGCATCGA,-0.0563
24,TGTGCGAA,-0.15
25,ATGCAAGA,-0.118

row,Sequence,PBM E-score
1,GAAGTCTA,-0.177
2,ACCAGGCG,0.109
3,AGGATAAT,0.106
4,GCTTTGGA,-0.0136
5,AACATCGC,0.0436
6,CAACTCCA,-0.134
7,AATTGGAT,0.06
8,AAACACGC,0.0242
9,CAAGTAGG,-0.109
10,GACCTCTA,-0.144
11,GACGATCA,-0.0372
12,ACGTCGCG,0.113
13,GTCATAAA,0.153
14,AGAAATAT,-0.0638
15,CGTCGAGA,0.026
16,AATAACTA,0.0164
17,GACGTGGC,-0.23
18,CGGAGTAA,0.0314
19,ATTAAAAT,0.0395
20,CTTATTCA,-0.0484
21,TAATAAGA,-0.159
22,CGGGACTC,0.204
23,ATCCCTGG,-0.14
24,GATTTCGA,-0.105
25,CAGAACAG,0.066

row,Sequence,PBM E-score
1,AGAAAGAC,-0.0136
2,GAAATGCC,-0.0678
3,CGCATGCA,0.144
4,AGGCCGTA,0.00746
5,AGCGGTGA,0.087
6,ACTAAGAG,-0.104
7,AGTAATAA,-0.00225
8,GTACTGCA,-0.00922
9,ACTGCTCT,-0.0446
10,GTGTCAGA,0.115
11,GACCAATC,-0.0894
12,TCCCTGCA,0.0302
13,GACGTGCC,-0.0792
14,AGGGGGTC,-0.311
15,ATGGCCTA,-0.222
16,ATTAACGG,0.00172
17,GTTGAGAA,-0.0514
18,CTACATCC,-0.157
19,CATAAGTC,0.056
20,CAGTACAC,0.122
21,AATAGTGC,-0.151
22,GGACGTCC,-0.12
23,CCCCAACC,0.192
24,CCCGGGAG,-0.0252
25,GAGGGCAA,0.0252

row,Sequence,PBM E-score
1,TACTGGCA,-0.138
2,CACCTAGA,-0.0265
3,TACTCGGA,0.126
4,AACCTACA,0.0211
5,AGGAACAC,-0.0881
6,ATGCGACG,0.0163
7,AGTCATTC,0.384
8,CTTACGAA,-0.115
9,CTATGCAG,0.0426
10,AAAATTGT,0.0635
11,AAGAGGAT,-0.0743
12,ACAAGATC,-0.0738
13,CCTGCTAA,-0.344
14,GCGCACCA,0.0304
15,AGCCGTAA,-0.0669
16,TCTAAACA,-0.254
17,GAGCAGCC,0.0642
18,GTATGTCA,0.117
19,AGGTAGTA,0.0487
20,CAGCCCGA,0.0547
21,ACGCAGCG,-0.0796
22,ACTCTTCC,-0.054
23,AACACTGG,0.103
24,CGATGGAA,-0.134
25,ACAGCCAG,0.209

row,Sequence,PBM E-score
1,ATTCATCA,0.0557
2,GAAGACCA,0.0605
3,ATAAGAGC,-0.0285
4,GAGTAGAA,-0.217
5,CGGAAGGC,-0.276
6,ACGCGGCC,-0.0291
7,ATAGAAGC,-0.0736
8,CGTAGAAC,-0.233
9,AACTCACC,0.224
10,ACAATCTC,0.0785
11,GAAAAATC,-0.0686
12,GACGTTTA,-0.11
13,CTGTCTAC,0.0767
14,ACTGGCCG,-0.269
15,AGGATGTA,0.159
16,GCAACGGA,0.0324
17,GTTTGAGA,-0.045
18,CAGTACCG,0.0537
19,TAAGCAAA,-0.242
20,CTTCTCCA,-0.167
21,CATATCGG,0.0424
22,AGTTCCCA,0.112
23,ACAGGTGA,0.176
24,AGGGTCCG,-0.18
25,CAGGACGC,-0.00404

row,Sequence,PBM E-score
1,TGTGTCAA,-0.0575
2,CAAATATA,0.0129
3,CGCGATGC,-0.241
4,GTCCTGGA,-0.321
5,AAAATCGG,-0.154
6,ACCTGTAT,0.0164
7,CCGCGTTC,0.0503
8,GACGATGA,0.177
9,CAGGGGGC,-0.14
10,AGCGGTAG,-0.0235
11,GCCCGCGA,0.139
12,CCATTTAA,-0.15
13,ATCCTTGG,0.0934
14,AGAAAAAA,-0.255
15,CACTCAGC,0.044
16,GCACCGAA,0.067
17,AATTCGAG,-0.0462
18,CAGGTCGA,0.132
19,ACGAAACC,0.164
20,ACTTCTCG,-0.184
21,AACTCGTC,0.0338
22,AAGTTGAG,-0.0223
